Measurements reported in the supplement of paper PMC3334620.
Whole data set: some 33,000 sequences, median “E-score (-0.5 to 0.5)” near -0.043, cut for the highest 2% near 0.37. Some of the results follow.

Target: T1, Upc2 (UniProt Q12151)
T1 sequence: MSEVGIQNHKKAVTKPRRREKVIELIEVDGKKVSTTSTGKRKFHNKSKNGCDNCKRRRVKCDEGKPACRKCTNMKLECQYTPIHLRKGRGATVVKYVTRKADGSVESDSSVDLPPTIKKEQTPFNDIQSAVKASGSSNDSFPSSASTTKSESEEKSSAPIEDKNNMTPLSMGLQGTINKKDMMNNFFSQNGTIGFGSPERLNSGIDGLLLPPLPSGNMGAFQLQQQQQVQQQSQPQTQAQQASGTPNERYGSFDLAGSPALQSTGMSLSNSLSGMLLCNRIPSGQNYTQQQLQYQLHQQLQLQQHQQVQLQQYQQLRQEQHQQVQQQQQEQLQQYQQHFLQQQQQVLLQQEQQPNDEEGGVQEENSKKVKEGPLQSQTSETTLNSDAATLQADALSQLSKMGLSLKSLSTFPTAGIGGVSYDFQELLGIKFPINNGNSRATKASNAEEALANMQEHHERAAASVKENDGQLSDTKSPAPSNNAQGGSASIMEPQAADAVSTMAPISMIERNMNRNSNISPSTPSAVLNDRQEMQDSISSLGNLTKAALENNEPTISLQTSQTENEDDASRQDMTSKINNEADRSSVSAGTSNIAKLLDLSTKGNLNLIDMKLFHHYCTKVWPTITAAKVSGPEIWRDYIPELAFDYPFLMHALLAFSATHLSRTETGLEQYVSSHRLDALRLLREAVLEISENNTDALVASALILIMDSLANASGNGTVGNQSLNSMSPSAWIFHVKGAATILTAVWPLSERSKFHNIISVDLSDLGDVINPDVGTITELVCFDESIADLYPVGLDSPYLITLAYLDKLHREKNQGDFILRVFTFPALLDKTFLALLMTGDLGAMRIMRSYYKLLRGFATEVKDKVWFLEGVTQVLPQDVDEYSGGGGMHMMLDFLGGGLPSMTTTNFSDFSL
Test: PBM E-score (8-mer binding enrichment) (E-score (-0.5 to 0.5)); higher = stronger / more preferred TF binding; most listed sequences are background and not binding sites
Conditions: protein concentration: 200 nM; construct: GST-full length
Procedure, shortened: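 PURExpress in vitro transcription/translation supplied GST-tagged yeast transcription factors, either full-length or DNA-binding domain. Applied at about 100-200 nM to universal all-10-mer Agilent arrays double-stranded by primer extension, the bound protein was detected with fluorescent anti-GST. E-scores, modified Wilcoxon-Mann-Whitney statistics, were given by the Universal PBM Analysis Suite to ungapped eight-base words pooled with their reverse complements after masliner normalisation.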

Going from CTAGCGAC to AGTCCATC, the “PBM E-score” value rises from -0.0103 to 0.0877.

Going from GAGTACGA to GCCATGGA, the “PBM E-score” value falls from 0.375 to -0.21.

Compared with TCGGCTCA, GCAGTATA is higher in “PBM E-score” value: -0.0257 for the first, 0.219 for the second.

Compared with CGTCGCGA, ACCTGGCT is lower in “PBM E-score” value: 0.182 for the first, -0.0587 for the second.

First: AACATGAC
Second: AATGTTCA
The “PBM E-score” value of the first is lower: -0.169 for the first, -0.0874 for the second.

Going from CAAGAAGG to GTGGACCA, the “PBM E-score” value falls from -0.178 to -0.182.

First: CGGGGGCC
Second: CACTCTGC
The “PBM E-score” value of the first is higher: 0.111 for the first, -0.0292 for the second.

Going from AGACTGAT to GGTCGGTA, the “PBM E-score” value rises from -0.166 to 0.221.

Going from CGTCAAGC to GTCCGTGA, the “PBM E-score” value rises from -0.212 to -0.105.

First: AGGACTAG
Second: GATGCACC
The “PBM E-score” value of the first is higher: -0.0925 for the first, -0.224 for the second.

Compared with GATTGCCC, CGTTTGTC is higher in “PBM E-score” value: -0.0861 for the first, 0.34 for the second.

First: CTAACCAC
Second: ACTGCTTC
The “PBM E-score” value of the first is higher: 0.0848 for the first, -0.0978 for the second.

First: AACTCGCG
Second: CTAATACC
The “PBM E-score” value of the first is higher: 0.134 for the first, -0.0448 for the second.

Going from GCCTACTA to ATTAGTTG, the “PBM E-score” value falls from 0.005 to -0.0363.

Going from ACTAGTCC to GGGTAAGA, the “PBM E-score” value rises from -0.332 to -0.0544.

Compared with TACCATCA, CGCTTTGA is higher in “PBM E-score” value: -0.0383 for the first, 0.00704 for the second.

Going from AGGGGACC to ATAATAAA, the “PBM E-score” value rises from -0.239 to 0.0566.

First: TAGACTCA
Second: ACTCGGTC
The “PBM E-score” value of the first is lower: -0.105 for the first, 0.0379 for the second.

Going from GCGCAAGC to ACGCTTAA, the “PBM E-score” value rises from -0.0448 to 0.135.

First: ACACCAGC
Second: CGACGTAA
The “PBM E-score” value of the first is lower: -0.111 for the first, 0.218 for the second.

Compared with GTCCCCGA, CGACTCAA is higher in “PBM E-score” value: -0.228 for the first, 0.197 for the second.

First: ACCGGTAT
Second: CACAGCAA
The “PBM E-score” value of the first is lower: -0.049 for the first, 0.164 for the second.

Going from ACTGCTAT to CGGTAAAC, the “PBM E-score” value rises from 0.0625 to 0.206.

First: AAGGTGGA
Second: AATGGCGC
The “PBM E-score” value of the first is lower: -0.0852 for the first, -0.0285 for the second.

First: ATCCTGAA
Second: AGACATCG
The “PBM E-score” value of the first is higher: 0.109 for the first, -0.0296 for the second.

Going from CGATTACA to ATGCCAAA, the “PBM E-score” value falls from 0.185 to -0.128.

Compared with ATCGTAAA, GGCGTGTA is lower in “PBM E-score” value: 0.448 for the first, -0.0443 for the second.

First: CTGGGTGA
Second: GCAACGCA
The “PBM E-score” value of the first is higher: -0.138 for the first, -0.149 for the second.

Going from ACGTAGCT to GCAGCGCC, the “PBM E-score” value falls from 0.162 to -0.0761.

Going from CGGTGTCC to ACTTTTTA, the “PBM E-score” value falls from -0.00807 to -0.00986.

Going from AAGATAAC to TGCCCTAA, the “PBM E-score” value falls from -0.0856 to -0.116.

First: AGCTGATA
Second: AAAAAGAC
The “PBM E-score” value of the first is higher: 0.0372 for the first, -0.0486 for the second.

Compared with TCAGACGA, CTAAGTAC is lower in “PBM E-score” value: 0.171 for the first, 0.152 for the second.

First: AAGAGGAC
Second: CACATCAC
The “PBM E-score” value of the first is lower: -0.242 for the first, -0.144 for the second.

Going from GCATAAAC to CACTAAGA, the “PBM E-score” value falls from 0.232 to -0.1.

Going from CGGGCCAA to ATCCTGTC, the “PBM E-score” value rises from -0.307 to 0.125.

Compared with ATAGCTCA, AACATAGT is higher in “PBM E-score” value: -0.134 for the first, 0.0732 for the second.

Compared with GACATTGC, ATATTTAA is higher in “PBM E-score” value: -0.342 for the first, 0.14 for the second.

Compared with ATGGTCCC, CGGTACTC is higher in “PBM E-score” value: -0.219 for the first, 0.0294 for the second.

First: TCACCCGA
Second: AGAGCAAT
The “PBM E-score” value of the first is higher: 0.00062 for the first, -0.0953 for the second.

Going from AAGAGCGG to CACCTTTC, the “PBM E-score” value rises from -0.0495 to -0.0421.

Going from ACCTTCGG to CCATATTC, the “PBM E-score” value rises from 0.122 to 0.124.

Compared with ATCAGCCC, CAATGTCC is lower in “PBM E-score” value: -0.226 for the first, -0.269 for the second.

First: CCCCACCC
Second: CCCTACGC
The “PBM E-score” value of the first is higher: 0.0563 for the first, -0.209 for the second.

Compared with CTTCAGAA, GCCTGAAC is lower in “PBM E-score” value: -0.0849 for the first, -0.15 for the second.

Compared with GGGCCACC, GTGTTTCA is higher in “PBM E-score” value: -0.16 for the first, -0.0708 for the second.

First: AAAGGAAA
Second: ATGTAACA
The “PBM E-score” value of the first is higher: 0.118 for the first, -0.0483 for the second.

Compared with CTCGGCGA, GCTATAAC is lower in “PBM E-score” value: 0.126 for the first, -0.153 for the second.

Compared with AGGAAGGC, GATCCTCC is lower in “PBM E-score” value: -0.0345 for the first, -0.157 for the second.

Going from ACTCTAAT to GCAGCAAA, the “PBM E-score” value rises from -0.125 to -0.0889.

Compared with ACTCCAAC, CGGGGGGC is higher in “PBM E-score” value: -0.199 for the first, 0.063 for the second.

First: GGGCCCAA
Second: CACGTGTC
The “PBM E-score” value of the first is lower: -0.193 for the first, -0.0686 for the second.

First: GGGATTGA
Second: AAATCTAA
The “PBM E-score” value of the first is lower: -0.205 for the first, -0.16 for the second.

Compared with AGTTTTGA, CGGTATAC is higher in “PBM E-score” value: -0.0786 for the first, 0.36 for the second.

First: GGTATGCA
Second: GGCTCGAC
The “PBM E-score” value of the first is higher: -0.00862 for the first, -0.201 for the second.

Going from GCCTCACC to CAGTATGC, the “PBM E-score” value falls from -0.123 to -0.154.

Compared with TATCTCGA, AGTGTAAA is lower in “PBM E-score” value: 0.0274 for the first, 0.0185 for the second.

First: CGCTTGGA
Second: AGAGGCCT
The “PBM E-score” value of the first is higher: -0.0625 for the first, -0.0685 for the second.

First: ATCGATGG
Second: AAGGTTGC
The “PBM E-score” value of the first is higher: 0.111 for the first, -0.298 for the second.

First: GTGCCAGA
Second: AAAGAGCA
The “PBM E-score” value of the first is lower: -0.18 for the first, 0.0939 for the second.

Going from GTTGCTCA to GAGTTTCC, the “PBM E-score” value falls from 0.0744 to -0.128.

First: CGGGACAG
Second: AGCGCCAA
The “PBM E-score” value of the first is higher: 0.148 for the first, -0.318 for the second.

First: GTTACCAA
Second: ACAGAGTC
The “PBM E-score” value of the first is higher: 0.138 for the first, 0.0223 for the second.

First: ACTCACCT
Second: GTACGAAA
The “PBM E-score” value of the first is lower: -0.23 for the first, 0.442 for the second.

Compared with ACTCTAGG, GAACTATA is higher in “PBM E-score” value: -0.216 for the first, 0.0178 for the second.

Going from CCGAGAGA to CGGACAGC, the “PBM E-score” value falls from -0.033 to -0.0574.

First: ACGCGCGA
Second: AACTCATA
The “PBM E-score” value of the first is higher: 0.0863 for the first, -0.0872 for the second.

First: AGTTATAT
Second: AAAGGGTA
The “PBM E-score” value of the first is lower: -0.0435 for the first, 0.0132 for the second.

First: AAGCGCCC
Second: CGAGTCTA
The “PBM E-score” value of the first is higher: -0.053 for the first, -0.0853 for the second.

Going from TCAAATCA to CAAGGGGA, the “PBM E-score” value rises from -0.148 to -0.0435.

Compared with GAACATTA, ATTGCCTG is lower in “PBM E-score” value: 0.00646 for the first, -0.0772 for the second.

Going from AGGGCCTG to CCATCACA, the “PBM E-score” value falls from -0.119 to -0.181.

Compared with AACTGATG, CACGGATG is higher in “PBM E-score” value: -0.119 for the first, -0.019 for the second.

Compared with AGTATTAG, AGCAACCA is lower in “PBM E-score” value: -0.124 for the first, -0.15 for the second.

Going from CGGTGACC to AAATCGGC, the “PBM E-score” value rises from -0.223 to -0.0758.

First: AAAAACCT
Second: CTGCCCGA
The “PBM E-score” value of the first is higher: -0.0504 for the first, -0.25 for the second.

First: ATTGCTCG
Second: CCGTCTAC
The “PBM E-score” value of the first is lower: 0.103 for the first, 0.114 for the second.

Going from CTTTCAAA to CACGCCTC, the “PBM E-score” value falls from 0.134 to -0.122.

Going from CCGAGGCA to AAACGGAT, the “PBM E-score” value rises from -0.0905 to 0.37.

Going from GCACTTAA to GCCGAATA, the “PBM E-score” value falls from 0.147 to 0.135.

Going from ACCTGACT to AACTATAG, the “PBM E-score” value falls from 0.03 to -0.174.

Going from GGTGCACC to CAGAATCA, the “PBM E-score” value rises from -0.0857 to -0.0386.

Going from CTCGACCA to CCATGCGC, the “PBM E-score” value falls from -0.0774 to -0.175.

First: AATTGGAC
Second: ACGCAGTC
The “PBM E-score” value of the first is higher: 0.0636 for the first, 0.00091 for the second.

First: GGCTACGA
Second: AGGACCCA
The “PBM E-score” value of the first is higher: 0.363 for the first, -0.292 for the second.

Going from CATCATCC to AATGTACA, the “PBM E-score” value rises from -0.12 to 0.133.
